The supplement of paper PMC3334620
The full ranking holds about 33,000 sequences; the median of “E-score (-0.5 to 0.5)” is about -0.054, and the highest 2% start at about 0.35. Some of the results follow.

biological target: T1, Stb5 (UniProt P38699); assay: PBM E-score (8-mer binding enrichment) (E-score (-0.5 to 0.5)); higher = stronger / more preferred TF binding; most listed sequences are background and not binding sites; details: protein concentration: 200 nM; construct: GST-full length
T1 sequence: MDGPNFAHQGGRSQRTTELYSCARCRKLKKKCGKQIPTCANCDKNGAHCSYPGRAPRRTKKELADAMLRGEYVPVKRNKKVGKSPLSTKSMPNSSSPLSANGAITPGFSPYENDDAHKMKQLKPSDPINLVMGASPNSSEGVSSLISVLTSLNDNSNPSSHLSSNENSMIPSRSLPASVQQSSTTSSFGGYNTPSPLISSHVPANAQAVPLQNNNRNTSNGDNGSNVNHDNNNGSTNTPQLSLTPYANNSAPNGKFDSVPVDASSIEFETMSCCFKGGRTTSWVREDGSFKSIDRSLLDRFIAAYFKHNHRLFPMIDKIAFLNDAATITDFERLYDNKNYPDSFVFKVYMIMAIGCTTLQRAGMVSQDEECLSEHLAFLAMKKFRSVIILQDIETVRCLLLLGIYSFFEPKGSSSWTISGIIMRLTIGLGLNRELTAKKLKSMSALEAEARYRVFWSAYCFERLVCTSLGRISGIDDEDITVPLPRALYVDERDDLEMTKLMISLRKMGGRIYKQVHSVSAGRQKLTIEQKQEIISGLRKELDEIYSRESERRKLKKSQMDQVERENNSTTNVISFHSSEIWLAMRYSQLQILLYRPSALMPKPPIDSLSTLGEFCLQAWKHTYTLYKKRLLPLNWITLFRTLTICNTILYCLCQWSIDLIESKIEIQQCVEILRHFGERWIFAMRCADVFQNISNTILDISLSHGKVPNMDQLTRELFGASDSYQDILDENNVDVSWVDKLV
Procedure, shortened: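 Bound GST-tagged yeast transcription factors, applied at about 100-200 nM to double-stranded universal all-10-mer Agilent arrays, were detected with fluorescent anti-GST. Scans were normalised with masliner. A modified Wilcoxon-Mann-Whitney statistic, the E-score, was assigned to each ungapped eight-base word pooled with its reverse complement by the Universal PBM Analysis Suite.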

Row | Sequence | PBM E-score
1 | ATCAAAGA | -0.248
2 | GATTCGGC | 0.23
3 | GCCTATCC | -0.129
4 | CCCTAGAG | -0.166
5 | TAACGACA | -0.0102
6 | GTAGCTCA | -0.161
7 | ATGTCAAT | -0.214
8 | GAGTGGTA | -0.145
9 | GTCCCCAC | -0.109
10 | AGCCTGCG | -0.122
11 | AATCGAAC | -0.199
12 | AAACTAAT | 0.0243
13 | GTTACAAC | -0.00522
14 | ATCTTCGG | 0.187
15 | ACGTGCCT | -0.175
16 | ATTTGGGA | -0.112
17 | ATCCCATC | -0.224
18 | GACTAGAA | -0.00619
19 | ATCGGCGG | 0.363
20 | CTTGGGTA | -0.128
21 | ACATCAGC | 0.0314
22 | CGGACCCC | 0.214
23 | CTTCGAAC | -0.0695
24 | GCCACTCA | -0.0669
25 | GACTCACC | -0.137

Row | Sequence | PBM E-score
26 | TATAGGAA | -0.165
27 | CAGTTGTC | -0.0815
28 | GGACTGCA | -0.106
29 | GTATCAGA | -0.0448
30 | CCGAAGTC | 0.163
31 | CTACGCCA | -0.139
32 | GCACACCC | -0.119
33 | ACTACGCT | 0.0319
34 | TCAGGGCA | -0.218
35 | TGCATCCA | -0.259
36 | TCTGTTAA | -0.205
37 | AGCACGCA | -0.202
38 | AAACCCCT | 0.153
39 | ACATGAGA | -0.116
40 | ATTAGAAC | 0.0975
41 | ACGGGTTG | -0.0554
42 | GGTAAGCA | 0.0288
43 | ATGGGCGC | -0.0937
44 | GATGTTCA | 0.058
45 | GACGGTCC | 0.288
46 | ACAAGTTG | -0.15
47 | CAACGGGC | 0.206
48 | GCCAACGA | -0.244
49 | AAATTTAG | -0.073
50 | AACAAACA | -0.0614

Row | Sequence | PBM E-score
51 | CCGGAGCG | 0.284
52 | CCTGCGTC | -0.195
53 | CTGTTATA | 0.171
54 | AAGCTATT | -0.0751
55 | ACGACGAG | -0.257
56 | GATTGTAA | -0.0108
57 | CAACTTAG | -0.111
58 | AAACGGAG | 0.215
59 | ATTTGTTG | 0.0614
60 | AGGCAAAG | -0.391
61 | AATGGAGA | 0.0934
62 | ACTAGTCT | -0.238
63 | CGGTAGGA | 0.176
64 | ATTCACGA | -0.174
65 | GCCGCCGA | 0.329
66 | AGGGATAA | -0.21
67 | GACCCTGC | -0.108
68 | TACAAGTA | -0.108
69 | GCACCGGC | 0.353
70 | AGGGCGTA | -0.0435
71 | CGTGCCGA | 0.212
72 | ATCCTACG | -0.0474
73 | ATAGGGAG | -0.352
74 | ATAATCCA | -0.0209
75 | GGGTACGA | -0.301

Row | Sequence | PBM E-score
76 | ATCTACAT | -0.193
77 | ATATCCAG | -0.147
78 | CCCACTTC | -0.168
79 | TAAACATA | -0.0401
80 | CCGGTCGA | 0.245
81 | AAACATAA | -0.221
82 | CTTTAAAA | 0.124
83 | AATCTGAG | -0.0516
84 | CAATACGA | 0.0782
85 | ACGGTCTG | -0.0746
86 | GTGCCCAA | -0.151
87 | GAGTATAC | 0.023
88 | CAGCTACA | -0.143
89 | GCCTTGCC | -0.151
90 | GACTAAGC | 0.0417
91 | CGGTTAGC | 0.0831
92 | ATTAAGTA | -0.0306
93 | CGTTAATA | 0.146
94 | GGGACAAC | 0.0253
95 | GGGAAAAC | 0.113
96 | GACTGTCC | 0.00266
97 | CAAGCTTA | 0.0928
98 | GCCGGCCC | 0.241
99 | CAATCAGG | -0.124
100 | TATGACAA | -0.104

Row | Sequence | PBM E-score
101 | CGTAAGTC | 0.0376
102 | ACCATTCG | -0.101
103 | ATTGCAAA | -0.0132
104 | ACCTACCT | 0.106
105 | ATGACGCC | 0.229
106 | AAATATGA | -0.0569
107 | ATCGAACG | -0.0952
108 | ACATCTGC | -0.183
109 | CTGAGGAC | 0.0844
110 | GGTGTCGA | -0.0848
111 | TTGTTAAA | 0.106
112 | CATAATCC | 0.0435
113 | AGAACAGG | -0.105
114 | GCGCAGTA | -0.078
115 | ACTACGTC | -0.0346
116 | GATCGTCC | 0.0239
117 | ATATCTTC | -0.00676
118 | GAATGGGA | -0.182
119 | CTTGCCCC | -0.0462
120 | CCGAATTA | 0.142
121 | CACGGTTC | -0.25
122 | AAGCACCC | -0.117
123 | ACAACGCG | -0.0497
124 | CGATCCTA | 0.158
125 | AGGGAACC | -0.0168

Row | Sequence | PBM E-score
126 | GAGCTCGC | -0.0819
127 | GAGTGTAA | -0.257
128 | AAGGAAAA | -0.196
129 | CCAGTATC | -0.132
130 | AGGGCAAT | -0.117
131 | AAGGCGGC | 0.151
132 | CCAATCAA | -0.0742
133 | AGGGTAAA | -0.199
134 | AACATATG | -0.0158
135 | ACATAGTA | -0.0424
136 | AACTTAAT | -0.00794
137 | CCTTGAGA | 0.0734
138 | CTATGCGA | -0.179
139 | CATGACCA | -0.378
140 | ATAATCAT | -0.0972
141 | ACCAGATC | -0.153
142 | GGCTAGCA | 0.109
143 | CCCGTGCG | 0.188
144 | GCCACTTA | -0.0133
145 | ATCTATTG | -0.0544
146 | TACGACTA | -0.0994
147 | GGGAATGA | -0.0101
148 | GAGGTGCC | -0.0435
149 | AGACGCGG | 0.159
150 | CCCCACTA | -0.079

Row | Sequence | PBM E-score
151 | CAGCATAC | -0.0788
152 | CAGAGCTC | -0.0323
153 | GCACCAAC | 0.0435
154 | GCGCGACA | 0.00575
155 | GAGTTACC | -0.0338
156 | ACGGTTCA | -0.187
157 | AGAGATCT | -0.187
158 | AGGCACAA | -0.13
159 | GAACCGTC | 0.0721
160 | ACGGGCTC | 0.196
161 | AAGCTGCA | -0.00205
162 | AAGCCTCT | -0.318
163 | AAGGTGAG | -0.185
164 | CAAATTGA | -0.259
165 | TACGAACA | -0.0597
166 | CAACCTCA | -0.309
167 | CTACTGCC | 0.00476
168 | GCCCTTGA | -0.284
169 | CGGAAGAA | 0.093
170 | TAGATGAA | 0.0599
171 | CCCGCAAC | 0.266
172 | AAAAACTG | -0.0746
